PubChem BioAssay AID463173 (ICCB-Longwood Screening Facility, Harvard Medical School, 2010)
Out of some 52,000 compounds screened, about 1,700 (3.3%) were called active. No stated cut-off is given here; in the data, active means survival mostly below about 52% (no sharp cut-off); inactive means mostly above about 56%. Some of the results follow.

What follows are compounds tested on Wild type (assay: growth inhibition of S. aureus wild type versus tarO mutant, primary screen, teichoic acid synthesis inhibitors, RN4220, OD600 (AID 463173)). Details: S. aureus RN4220 wild type/DeltatarO growth, OD600, 18 h, stronger effect = lower value, screened at 18.75 µg/mL (by protocol).

Row | SMILES | survival
1 | CCOc1cc(-c2nc3c(c(CC)nn3-c3ccccc3)c3cc(OC)c(OC)cc23)ccc1O | inactive: 87%
2 | Cc1ccc(CN2C(=O)C(O)(c3c[nH]c4ccccc34)c3cc(Cl)ccc32)cc1 (stereo unspecified) | active: -11%
3 | Cc1ccc(-c2nnc(SCc3ccccc3C#N)o2)cc1 | inactive: 66%
4 | CC(C)NC(=O)CCSc1ccc(Cl)cc1 | inactive: 117%
5 | Cc1ccc(C)c(NC(=O)Cn2c(=O)n(Cc3ccco3)c(=O)c3oc4ccccc4c32)c1 | inactive: 87%
6 | Cc1ccc2c(c1)NC(c1cccnc1)=NC(c1ccc(F)cc1)=N2 | inactive: 90%
7 | COc1ccc(C(=O)COC(=O)c2cccc(NC(=O)c3ccc(OC)c(OC)c3)c2)cc1 | inactive: 88%
8 | O=C(C1CCCN(S(=O)(=O)Cc2ccccc2)C1)N1CCc2ccccc21 (stereo unspecified) | inactive: 100%
9 | CCOC(=O)C(CC)n1nc(C)n2c(cc3occc32)c1=O (stereo unspecified) | inactive: 120%
10 | Cc1cccc(OCC(=O)OCc2cc(=O)n3nc(C4CCCCC4)sc3n2)c1 | inactive: 100%
11 | Cc1ccc(CNC(=O)CCc2c(C)nn(-c3ccc(N4CCCCC4)nn3)c2C)cc1 | inactive: 92%
12 | Cc1csc2nc(-c3cccc(NC(=O)c4ccccc4Cl)c3)cn12 | inactive: 120%
13 | Cc1ccc(-c2nc3ccccn3c2Nc2ccc3c(c2)OCO3)cc1 | inactive: 45%
14 | COc1ccc(C(=O)c2cn(Cc3ccc(F)cc3)c3ccc(C)cc3c2=O)cc1 | inactive: 64%
15 | Cc1ccc(S(=O)(=O)NCC(c2ccc(N(C)C)cc2)N2CCOCC2)cc1 (stereo unspecified) | inactive: 65%
16 | O=C(NC1CCCCCC1)C1CCN(C(=O)N2CCOc3ccccc32)CC1 | inactive: 85%
17 | CC(C)(C)C(=O)NC1CCN(S(=O)(=O)c2ccccc2C(=O)O)CC1 | inactive: 105%
18 | COc1cc(OC)c(N(C)C(=O)Cn2ncc3c([nH]c4ccccc43)c2=O)cc1Cl | inactive: 81%
19 | O=c1c2cc3c(cc2nc2sc(Nc4ccc(F)c(Cl)c4)nn12)OCO3 | inactive: 138%
20 | Cc1nc(C)c(-c2ccc(SCC(=O)Nc3ccc(F)c(F)c3)nn2)s1 | inactive: 75%
21 | CN(Cc1ccccc1)C(=O)C1CCN(S(=O)(=O)Cc2ccccc2)CC1 | inactive: 85%
22 | COc1cc(/C=C(\C#N)c2nc3ccccc3n2C)cc(OC)c1OC | inactive: 71%
23 | Cc1ccc(NC(=O)c2cc(S(=O)(=O)N3CCCC(C)C3)cn2C)c(Br)c1 (stereo unspecified) | inactive: 93%

Row | SMILES | survival
24 | CCOC(=O)/C=C(\C)Nc1cc(-c2ccc(Cl)cc2)[nH]n1 | inactive: 116%
25 | COC(=O)C1=C(C)Nc2ncnn2C1c1ccncc1 (stereo unspecified) | inactive: 100%
26 | Cn1c(=O)c2c(-c3cccc(Br)c3)n(CCO)cc2n(C)c1=O | inactive: 80%
27 | CCOc1ccc(CNC(=O)c2cc3ccccn3n2)cc1OC | inactive: 91%
28 | CCN1CCN(c2oc(/C=C/c3ccccc3OC)nc2C#N)CC1 | inactive: 87%
29 | COc1cccc(NS(=O)(=O)c2ccc3[nH]cc(C(=O)N4CCCCCC4)c(=O)c3c2)c1 | inactive: 128%
30 | CCOC(=O)c1c(-c2ccc(C)cc2)csc1NC(=O)c1nc(SCC)ncc1Cl | inactive: 78%
31 | Cc1ccc(-n2c(=O)c3ccc(C(=O)NCc4ccccc4Cl)cc3n(Cc3ccccc3F)c2=O)cc1 | inactive: 80%
32 | CC1CCN(CCCNC(=O)c2cc(Sc3ccc(F)cc3)nc3ccccc23)CC1 | inactive: 74%
33 | CCc1ccc(CN(Cc2cn[nH]c2-c2ccc(OC)cc2)C(=O)Nc2ccc(C)c(F)c2)cc1 | inactive: 77%
34 | CNC(=O)/C(C#N)=C/c1cn(CCOc2ccccc2)c2ccccc12 | inactive: 110%
35 | Nc1cccc(-c2cn3ccsc3n2)c1 | inactive: 55%
36 | CSc1nnc(NC(=O)Cc2coc3cc(C)ccc23)s1 | inactive: 85%
37 | O=C(NC1CC(=O)N(c2cccc(F)c2)C1)C1CC1 (stereo unspecified) | inactive: 75%
38 | Cc1ccc(NC(=O)c2oc3ccccc3c2NC(=O)c2ccccc2C)cc1 | inactive: 86%
39 | O=S(=O)(c1ccccc1)N1CCN(C2CCCCCCC2)CC1 | inactive: 108%
40 | CCOC(=O)c1c(-c2ccccc2)oc2ccc(NS(=O)(=O)c3ccc(C)cc3C)cc12 | inactive: 51%
41 | COc1ccc(Cn2c(=O)c3cccnc3n(Cc3cccc(OC)c3)c2=O)cc1 | inactive: 80%
42 | CCN(CC)c1cc(C)c2cc(NC(=O)c3ccccc3OC)ccc2n1 | inactive: 59%
43 | Cc1cc(C)c(NC(=O)CSc2nc3nc(C)cc(C)n3n2)c(C)c1 | inactive: 126%
44 | CCOc1cc(/C=N/NC(=O)C(OC)c2ccccc2)ccc1O (stereo unspecified) | inactive: 95%
45 | Cc1cc(C)c(NC(=O)CSc2ccc(-c3sc(-c4ccccc4)nc3C)nn2)c(C)c1 | inactive: 73%
46 | CCn1c(=O)c2sccc2n2c(CCCC(=O)N3CCN(c4cc(Cl)ccc4C)CC3)nnc12 | inactive: 78%

Row | SMILES | survival
47 | CCCCn1c(SCC(=O)NCCCOC)nc2c(sc3ccccc32)c1=O | inactive: 133%
48 | COc1ccc(-c2nnc(SCC(=O)NCc3ccc(C)cc3)nc2-c2ccc(OC)c(OC)c2)cc1OC | inactive: 88%
49 | O=C(CSc1nc(-c2ccc(F)cc2)[nH]c1-c1ccccc1)NCC1CCCO1 (stereo unspecified) | inactive: 84%
50 | N#CC(C#N)=Cc1ccc(-c2ccc3c(c2)COC3=O)o1 | inactive: 109%
51 | CCc1ccc(C(=O)c2cn(CC(=O)Nc3ccc(OC)c(OC)c3)c3ccc(C)cc3c2=O)cc1 | inactive: 80%
52 | COc1ccccc1N1CCN(c2ncccc2-c2nc(-c3ccc(Cl)cc3)no2)CC1 | inactive: 81%
53 | CCCCOc1cccc(C2c3c(oc4ccccc4c3=O)C(=O)N2c2ccccn2)c1 (stereo unspecified) | inactive: 68%
54 | CC(=O)Nc1ccc(-c2cn(CC(=O)NN)cn2)cc1 | inactive: 111%
55 | CCS(=O)(=O)N1CCC(n2c(C(F)(F)F)nc3cccnc32)CC1 | inactive: 88%
56 | CCCC1=Nc2cc(C(=O)NC(C)c3ccccc3)ccc2Sc2ccc(C)cc21 (stereo unspecified) | inactive: 86%
57 | Cc1nn(C(=O)c2c(F)cccc2F)c(C)c1S(=O)(=O)N1CCOCC1 | inactive: 71%
58 | COCCN1C(=O)c2[nH]nc(-c3ccccc3O)c2C1c1ccc(Cl)c(Cl)c1 (stereo unspecified) | active: 3%
59 | CCOC(=O)c1ccc(CNS(=O)(=O)c2c(C)ccc3nsnc23)o1 | inactive: 105%
60 | O=C(CCN1N=C(c2ccccc2)CCC1=O)NCCc1ccc(Cl)cc1 | inactive: 124%
61 | O=C(NCCc1ccccc1)c1cc(S(=O)(=O)N2CCCCC2)c[nH]1 | inactive: 88%
62 | CCN(CC)c1nc2n(c(=O)n1)CCO2 | inactive: 102%
63 | CCOC(=O)c1cnc2c(ccc3ccccc32)c1Nc1cccc(OC)c1 | inactive: 68%
64 | Cc1ccc(CN(Cc2ccco2)C(=O)COc2cc(C)c(Cl)c(C)c2)cc1 | inactive: 89%
65 | COc1ccc(CCNC(=O)c2ccc3c(c2)N(Cc2ccccc2F)C(=O)c2ccccc2S3(=O)=O)cc1OC | inactive: 159%
66 | Cc1cc(C)c2[nH]c(=O)c(CN(Cc3ccc(F)cc3)Cc3nnnn3CC3CCCO3)cc2c1 (stereo unspecified) | inactive: 103%
67 | Cc1cccc(N2CCN(C(=O)c3cc4c(=O)oc5ccccc5c4s3)CC2)c1C | inactive: 78%
68 | Cc1ccc(NC(=O)/C=C/c2ccc(C)o2)c(C)c1 | inactive: 62%
69 | Cc1cc(C(F)F)n2nc(C(=O)Nc3c(C)cccc3C)nc2n1 | inactive: 70%

Row | SMILES | survival
70 | COc1ccc(-n2c(CC3C(=O)N(C)c4ccc(C)cc43)nc3ccccc3c2=O)cc1 (stereo unspecified) | inactive: 113%
71 | CCc1ccc(NC(=O)CN(c2ccc(OC)cc2)S(=O)(=O)c2c(C)[nH]c(=O)[nH]c2=O)cc1 | inactive: 76%
72 | COc1ccc(S(=O)(=O)N2CCC(Oc3ccc(-n4cnnn4)cc3)CC2)cc1OC | inactive: 83%
73 | CCOc1ccc(C(=O)c2cn(Cc3ccccc3OC)c3ccc(F)cc3c2=O)cc1 | inactive: 84%
74 | Oc1c(C(c2ccccc2Cl)N2CCCC2)sc2nc(-c3ccco3)nn12 (stereo unspecified) | inactive: 82%
75 | CCOc1ccc(N(CC(=O)NCc2ccccc2Cl)S(=O)(=O)c2c(C)[nH]c(=O)[nH]c2=O)cc1 | inactive: 81%
76 | CC(=O)Nc1ccc(NC(=O)CSc2nc3ccccc3nc2N2CCOCC2)cc1 | inactive: 84%
77 | CN1C(=O)c2ccccc2Sc2ccc(NC(=O)COc3ccc(F)cc3)cc21 | inactive: 72%
78 | Fc1ccc(CN2CCc3nc(Nc4ccccc4)ncc3C2)cc1F | inactive: 66%
79 | COc1ccc(CCNc2ncnc3c2cnn3-c2ccc(C)cc2)cc1 | inactive: 71%
80 | COc1ccc(-c2noc(CNC(=O)c3ccco3)n2)cc1 | inactive: 81%
81 | O=C(NCc1ccco1)c1ccc2c(c1)N(Cc1cccc(Cl)c1)C(=O)c1ccccc1S2(=O)=O | inactive: 64%
82 | Cc1ccc(CNC(=O)CSc2cc(C)[nH]c(=O)n2)cc1 | inactive: 73%
83 | Cn1c(SCc2ccccc2)nnc1-c1ccccc1 | inactive: 101%
84 | Cc1nn(-c2ccccc2)c2nc(C3CC3)cc(C(=O)Nc3ccccc3F)c12 | inactive: 75%
85 | COc1ccc(C2C(=O)N(C3CCCCCC3)CC(=O)N2Cc2ccc(C)cc2)cc1OC (stereo unspecified) | inactive: 69%
86 | Cc1ccccc1C(=O)Nc1nnc(S(=O)(=O)N2c3ccccc3CC2C)s1 (stereo unspecified) | inactive: 33%
87 | Cc1c(NS(=O)(=O)c2ccccc2)cc(C(C)C)c(O)c1S(=O)(=O)c1ccc(Cl)cc1 | inactive: 115%
88 | COc1cc(C(=O)N2CCC(c3nc4ccccc4o3)CC2)cc(OC)c1OC | inactive: 83%
89 | Cc1ccc2[nH]cc(NC(=O)NCCN(C)C)c(=O)c2c1 | inactive: 117%
90 | CC1CCN(C(=O)CSc2nc(-c3ccccc3)no2)CC1 | inactive: 115%
91 | CC(C)(C)n1nnnc1C(c1ccccn1)N1CCC(Cc2ccccc2)CC1 (stereo unspecified) | inactive: 110%
